Measurements taken from article PMC6919601, “Identification of Plasmodium dipeptidyl aminopeptidase allosteric inhibitors by high throughput screening” (PLoS ONE, 2019).
Among all 110,000 compounds or so, about 230 (0.21%) showed an effect of 50% or more. This is one part of the list.

target: DPAP1 (Plasmodium falciparum, UniProt Q8IIJ9); assay: primary screen, percent inhibition; read by cleavage of a fluorogenic dipeptide substrate; higher = more effect of the substance; set-up: species or system P. falciparum D10 trophozoite lysates; single well
Sequence (Q8IIJ9 whole entry, looked up): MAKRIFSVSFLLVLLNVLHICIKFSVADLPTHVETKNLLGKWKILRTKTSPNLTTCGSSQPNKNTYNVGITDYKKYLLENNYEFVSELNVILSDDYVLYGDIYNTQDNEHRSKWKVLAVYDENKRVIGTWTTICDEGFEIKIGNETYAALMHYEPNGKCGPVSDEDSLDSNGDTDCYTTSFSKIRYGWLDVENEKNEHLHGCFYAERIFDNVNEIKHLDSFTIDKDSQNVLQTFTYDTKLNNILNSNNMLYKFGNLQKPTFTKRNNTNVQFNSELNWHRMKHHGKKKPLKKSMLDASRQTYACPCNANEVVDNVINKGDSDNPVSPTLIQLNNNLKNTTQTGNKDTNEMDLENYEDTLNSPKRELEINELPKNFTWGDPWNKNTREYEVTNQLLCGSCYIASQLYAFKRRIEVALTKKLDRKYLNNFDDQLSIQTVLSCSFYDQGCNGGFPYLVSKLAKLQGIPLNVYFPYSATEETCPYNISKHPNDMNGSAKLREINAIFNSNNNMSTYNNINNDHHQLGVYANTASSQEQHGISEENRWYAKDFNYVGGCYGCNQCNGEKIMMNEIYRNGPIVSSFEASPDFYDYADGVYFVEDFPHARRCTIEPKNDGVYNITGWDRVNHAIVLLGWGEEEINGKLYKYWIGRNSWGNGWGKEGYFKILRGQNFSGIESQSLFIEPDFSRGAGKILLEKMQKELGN
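Further: 30 min substrate incubation versus DMSO and 10 µM JCP410 controls.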

| Structure (SMILES) | % Inhibition @ 10 uM [%] |
| --- | --- |
| c1ccc(OCCN2CCN(c3ccccc3)CC2)cc1 | 4.81 |
| O=C(COc1ccccc1)n1nc(-c2ccco2)nc1NCc1cccs1 | 0.248 |
| CCOc1cc2c(cc1OC)C(c1ccc(N(C)C)cc1)NCC2 (stereo not drawn) | -1.22 |
| CN1C(=O)NC(=O)/C(=C\c2cc3c(cc2Cl)OCO3)C1=O | -2.97 |
| Cc1c(C(=O)OC(C)C)[nH]c2c1C(=O)CC(C)(C)C2 | 0.559 |
| Cc1cccc(OCc2nc(C#N)c(N3CC(C)OC(C)C3)o2)c1 (stereo not drawn) | 2.32 |
| CO/C(=N\c1c(C)cc(C)cc1C)c1ccco1 | -0.736 |
| CCCNC(=O)c1cc2nc(-c3ccc(Cl)cc3)cc(C(F)(F)F)n2n1 | -1.93 |
| COc1coc(CSC(=S)N2CCCCC2)cc1=O | -0.636 |
| CC1(C)CC(=O)c2c(nc(SCC(=O)NCc3ccc4c(c3)OCO4)c(C#N)c2-c2ccccc2)C1 | 3.06 |
| O=C(OCCCc1nc2ccccc2[nH]1)C12CC3CC(CC(C3)C1)C2 | -7.78 |
| Cc1nc(O)nc(O)c1S(=O)(=O)N1CCN(C2CCCCC2)CC1 | -2.58 |
| O=C(CC1CCCCC1)NCc1nc(-c2ccc(Cl)cc2)no1 | -2.99 |
| Cc1nn(Cc2ccccc2)c(=S)[nH]c1=O | -3.63 |
| O=C(NCCc1ccc(Cl)cc1)NCc1noc2ccccc12 | -2.85 |
| CC/N=C1\S/C(=C\c2ccc(F)cc2)C(=O)N1CC | -24.6 |
| CCn1c(=O)c2sccc2n2c(CCCC(=O)NCCc3c[nH]c4ccccc34)nnc12 | -4.76 |
| NC(=O)c1ccc(Cl)c(N2C(=O)C3C4C=CC(C4)C3C2=O)c1 (stereo not drawn) | 3.8 |
| O=C(Cn1ncc2c3ccccc3nc-2c1O)Nc1ccc(Cl)cn1 | -5.6 |
| Cc1cnc(NC(=O)CSc2ncn(-c3ccccc3)n2)s1 | 0.245 |
| CSc1ccc2nc(NC(C)CCCC(C)(C)O)cc(C)c2c1 (stereo not drawn) | -3.32 |
| Sc1nnc(CN2CCCCCC2)n1-c1ccccc1 | 1.43 |
| CCOC(=O)CNC(=O)NC(C)c1ccc(C)cc1 (stereo not drawn) | 0.968 |
| Cc1nn(-c2ccc(F)cc2)c(-n2cccc2)c1C(=O)Nc1nccs1 | -6.49 |
| COc1ccc(-c2cc(C(F)(F)F)n3nc(C(=O)NCc4ccccc4)cc3n2)cc1 | 15.6 |
| CC(c1ccccc1)C1C(C#N)=C(N)Oc2[nH]nc(-c3ccccc3)c21 (stereo not drawn) | 5 |

| Structure (SMILES) | % Inhibition @ 10 uM [%] |
| --- | --- |
| Cc1cc(C)c(C)c(S(=O)(=O)NCC(=O)N2CCN(C(=O)c3ccco3)CC2)c1C | 2.4 |
| COc1ccccc1C1C(C#N)=C(C)N=C2CC(c3ccccc3)CC(O)=C21 (stereo not drawn) | 0.792 |
| OC12CCCCC1C(c1c(F)cccc1Cl)NCC2 (stereo not drawn) | -0.13 |
| CC12CN3CC(C)(CN(C1)C3(C)C)C2O (stereo not drawn) | -4.03 |
| C/C=C(\C)CN1CCCC(C(=O)OCC)C1 (stereo not drawn) | 3.48 |
| CC(Oc1ccc(Oc2ncc(Cl)cc2Cl)cc1)C(=O)O (stereo not drawn) | -6.86 |
| CCO/C(O)=C1\C(C)=NC(=S)NC1c1cccc(OC)c1 (stereo not drawn) | -1.99 |
| O=C(NC1CCCCC1)NC1CCN(c2nc3ccccc3s2)CC1 | -2.88 |
| Cc1ccc(OC2OCC(O)C(O)C2O)cc1 (stereo not drawn) | -5.65 |
| CC(C)c1ccc(NC(=O)c2ccccc2F)cc1 | -5.57 |
| COCCCNC(=O)C1=C(C)C(=O)OC12CCN(C(C)=O)CC2 | -2.69 |
| COc1ccccc1-c1cc(=O)n(CC(=O)N2CCC(N3CCCCC3)CC2)c2c1CCCC2 | 5.09 |
| Cc1ccc(O)c(-c2cc(-c3ccccc3Cl)[nH]n2)c1 | -0.414 |
| CC(CCN1CCCC(O)C1)c1ccccc1 (stereo not drawn) | -2.24 |
| CC(C)NC(=O)c1c(O)c2ccccc2n(C)c1=O | 2.92 |
| CN(C)c1ccc(CN(C(=O)c2ccc(Br)cc2)C2CCS(=O)(=O)C2)cc1 (stereo not drawn) | -5.49 |
| CCN(CC)CC#CC(C)(CC)OC(C)=O (stereo not drawn) | 5.77 |
| CCOc1ccc(C2C3=C(O)CC(C)(C)CC3=NC(C)=C2C(=O)Nc2ccccc2OC)cc1OC (stereo not drawn) | -5.96 |
| Nc1ccc2nc(SCC(=O)N3CCOCC3)sc2c1 | 4.01 |
| CNC(=O)C12N=CNN=C1N(C)C(=O)N2C (stereo not drawn) | -1.69 |
| COc1ccccc1/C=C/C=c1\sc2nc(-c3ccccc3OC)nn2c1=O | 0.561 |
| Cc1ccc(-c2ccc(/C=C3\SC(=O)N(C)C3=O)o2)c(Br)c1 | 2.17 |
| Cc1sc(NC(=O)C2CC=CCC2C(=O)O)c(C#N)c1-c1ccccc1 (stereo not drawn) | -2.07 |
| O=C(O)c1ccccc1S(=O)(=O)Cc1ccccc1 | 0.983 |
| CN(C)CCN(C(=O)COc1ccccc1)c1nc2cc3c(cc2s1)OCO3 | -0.35 |
| COc1cc(CN2CCC(Cc3ccccc3)CC2)cc(OC)c1 | -4.58 |

| Structure (SMILES) | % Inhibition @ 10 uM [%] |
| --- | --- |
| CC(=O)c1ccc(NS(=O)(=O)c2cc(S(=O)(=O)c3ccccc3)ccc2C)cc1 | -7.27 |
| COc1cccc2c(O)c3cccc(OC)c3nc12 | -10.9 |
| COc1cc2nc(-c3ccc(N(C)C)cc3)n(C)c2cc1OC | -3.03 |
| Cc1cc2c(cc1/C=C1/S/C(=N/c3ccccc3)N(C)C1=O)OCO2 | -1.27 |
| Cc1ccc(NC(=O)Nc2ccccc2)cc1F | -7.06 |
| Cc1cc2ncc(-c3ccc(Cl)cc3)c(N)n2n1 | -2.67 |
| Cc1cccc(N(CC(=O)N2CCN(c3cc(Cl)ccc3C)CC2)S(C)(=O)=O)c1 | -1.27 |
| O=C(C1=C(O)C(=O)N(CCCn2ccnc2)C1c1ccc(O)cc1)c1cc2ccccc2o1 (stereo not drawn) | -0.28 |
| Cc1ccc(CCNC(=O)CN(C)S(=O)(=O)c2c[nH]cn2)cc1 | 1.63 |
| COc1ccc(C(O)c2nc3ccccc3n2C(C)C)cc1OC (stereo not drawn) | -1.79 |
| CCCC1=C(C(=O)OCC)C(c2ccc(CC)cc2)NC(=O)N1 (stereo not drawn) | -1.66 |
| CCN(CC)CCNC(=O)c1cc(C)nc2c1c(C)nn2-c1ccccc1 | 6.84 |
| Cc1noc(/C=C/c2cccs2)c1S(=O)(=O)N1CCC(C(=O)Nc2nccs2)CC1 | -1.28 |
| CC(=O)C1=C(O)C(=O)N(C)C1c1ccc(N(C)C)cc1 (stereo not drawn) | 2.65 |
| Oc1nc2c(s1)C(c1ccccc1)C1C3CCC(C3)C1S2 (stereo not drawn) | 3.37 |
| C=CCn1c(CC)nc2c(sc3nc4c(cc32)COC(C)(C)C4)c1=O | 10.9 |
| Cc1ccc2oc(=O)c3cc(C(=O)NC(C)CCc4ccco4)sc3c2c1 (stereo not drawn) | -3.37 |
| NS(=O)(=O)c1ccc(CCNC(=O)c2cnn(-c3ccccc3)c2-n2cccc2)cc1 | -1.58 |
| Nc1c(C(=O)NCCC2=CCCCC2)sc2ccc(S(=O)(=O)N3CCCCC3)cc12 | 5.23 |
| N#CC1=C2SCN(C3CCCC3)CN2C(=O)CC1c1cccs1 (stereo not drawn) | 48.2 |
| COC(=O)c1c(-c2ccccc2)csc1NS(=O)(=O)c1cc(-c2cc(C)no2)ccc1C | -1.19 |
| COc1ccc(S(=O)(=O)Nc2cncc(C(=O)NCc3ccc4c(c3)OCO4)c2)cc1 | -4.05 |
| CCOC(=O)NC1CS(=O)(=O)CC1NCC(=O)O (stereo not drawn) | -3.5 |
| c1ccc(/N=c2\scc(-c3ccccc3)n2CCCN2CCOCC2)cc1 | -4.26 |
| CCOCCCNC(=O)C(c1ccc(C)cc1)N(Cc1cccs1)C(=O)c1cnccn1 (stereo not drawn) | 1.26 |
| CN(C)c1nc(N)nc(CSc2nc3c(c(=O)n(C)c(=O)n3C)n2C)n1 | -9.47 |

| Structure (SMILES) | % Inhibition @ 10 uM [%] |
| --- | --- |
| O=C(NCc1cccnc1)C(=O)NCc1ccc2c(c1)OCO2 | -4.04 |
| O=C(Nc1ccc(Cl)cc1)c1cccs1 | 2.86 |
| COCCN(Cc1ccco1)C(=O)Nc1cn(C)c(=O)c2ccccc12 | 9.42 |
| O=C(CN1Cc2ccccc2C1=O)NCCCc1ccccc1 | -4.1 |
| CCOc1ccccc1C(=O)N(Cc1ccc(Cl)cc1)Cc1ccco1 | 4.47 |
| CCc1nnc(NC(=O)CSc2ccc3nnc(-c4ccc(Cl)cc4)n3n2)s1 | 1.73 |
| Cc1ccc(CNC(=O)Cc2nc3nc(C)cc(C)n3n2)cc1 | -3.94 |
| Cc1ccccc1C(=O)c1cccn1CC(=O)NCCN1CCCCC1C (stereo not drawn) | 1.15 |
| O=C(Nn1cnnc1)c1ccco1 | 2.45 |
| CCc1ccc(CNCc2c(C(=O)O)n(Cc3cccc(F)c3)c3ccccc23)cc1 | -0.804 |
| CC(NC(=O)c1cc(-c2ccc(O)cc2)on1)c1ccccc1 (stereo not drawn) | 4.5 |
| Cc1cccn2c(=O)c3cc(C(=O)NCc4ccc5c(c4)OCO5)n(C)c3nc12 | 6.81 |
| CC(C)CN(CC(C)C)c1nnc(NC(=O)NCc2ccco2)s1 | -6.58 |
| CC12CC(c3ccccc3O1)C(S(=O)(=O)c1ccccc1)C(=O)N2 (stereo not drawn) | 2.57 |
| COc1ccc(/C(O)=C/C=N/c2cc(C(C)(C)C)on2)cc1 | -15.2 |
| CC(=O)C1=C(NCc2nc3ccccc3[nH]2)CC(C)(C)CC1=O | 2.99 |
| Cc1oc(-c2cccc(Cl)c2)nc1CS(=O)(=O)CC(=O)NCc1ccc2c(c1)OCO2 | -1.43 |
| O=C(CCn1ccc2cc(S(=O)(=O)N3CCCC3)ccc21)NCCc1cccs1 | 1.11 |
| CC(C)c1ccc(S(=O)(=O)c2nnn3c2nc(NCc2ccccc2)c2sccc23)cc1 | -2.55 |
| CC(C)(C)OC(=O)N1CCC(c2nc(N3CCOCC3)ncc2C(=O)O)CC1 | -6.62 |
| CC1=CC(c2ccccc2)n2nc(N3C(=O)C4CCCCC4C3=O)nc2N1 (stereo not drawn) | 3.25 |
| CC(C)C[C@H](NC(=O)c1ccc(-c2ccccc2-c2ccccc2)cc1)C(=O)NCC#N | -1.41 |
| CSc1ccccc1NC(=O)c1sccc1C | 2.51 |
| COc1ccccc1NC(=O)C1=C(C)Nc2ncnn2C1c1ccc(OCc2ccccc2)cc1 (stereo not drawn) | 5.37 |
